Lines with a small IC50 respond at low doses; fits outside the tested doses are given as limits. The AUC spans the tested range (256-fold, ending at the top dose) of the same fit: 1 means no effect, lower means more sensitive. An inferred top dose was calculated from the reported fits. For some assays here: Drugs with an entry number were screened twice under separate entries, and the two screens often disagree.
Compound: Cc1ccc(-n2nc(C(C)(C)C)cc2NC(=O)Nc2ccc(OCCN3CCOCC3)c3ccccc23)cc1 [BIRB 0796]
Test: Viability of human cancer cell lines after 72 h of drug (GDSC screen)
Conditions: top dose 10 µM; top dose inferred
Experimental: (§1)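 Human cancer cell lines in 384-well plates, medium with 10% serum, drug for 72 h over a 256-fold dose range (nine 2-fold or five 4-fold steps up to the top dose). Adherent lines were fixed and stained with the nucleic acid dye Syto60, suspension lines read with resazurin; signal relative to control wells, capped at 0 and 100%. One two-parameter sigmoid per drug and line, fitted in a mixed model over all curves with the slope shared within a line.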

Row | Cell Line | AUC | IC50 [µM]
1 | 22RV1 (prostate, adherent) | 0.953 | > 10
2 | 639-V (bladder, adherent) | 0.984 | > 10
3 | 8305C (thyroid, adherent) | 0.969 | > 10
4 | 8505C (thyroid, adherent) | 0.887 | > 10
5 | A427 (non-small cell lung carcinoma, adherent) | 0.984 | > 10
6 | AU565 (breast, adherent) | 0.837 | 7.8
7 | AsPC-1 (pancreas, adherent) | 0.96 | > 10
8 | BHT-101 (thyroid, adherent) | 0.953 | > 10
9 | BICR10 (head and neck, adherent) | 0.888 | > 10
10 | BT-20 (breast, adherent) | 0.984 | > 10
11 | BT-483 (breast, adherent) | 0.94 | > 10
12 | C32 (melanoma, adherent) | 0.96 | > 10
13 | C-4-I (cervix, adherent) | 0.945 | > 10
14 | CAL-12T (non-small cell lung carcinoma, adherent) | 0.971 | > 10
15 | CAL-27 (head and neck, adherent) | 0.982 | > 10
16 | CAL-33 (head and neck, adherent) | 0.917 | > 10
17 | CAL-62 (thyroid, adherent) | 0.987 | > 10

Row | Cell Line | AUC | IC50 [µM]
18 | CAPAN-1 (pancreas, adherent) | 0.828 | 7.13
19 | CCK-81 (large intestine, adherent) | 0.987 | > 10
20 | CHP-212 (neuroblastoma, adherent) | 0.975 | > 10
21 | CHSA0108 (chondrosarcoma, adherent) | 0.975 | > 10
22 | DoTc2-4510 (cervix, adherent) | 0.984 | > 10
23 | HCC1395 (breast, adherent) | 0.95 | > 10
24 | HCC1937 (breast, adherent) | 0.928 | > 10
25 | HCT-15 (large intestine, adherent) | 0.984 | > 10
26 | HCT-116 (large intestine, adherent) | 0.976 | > 10
27 | HT-29 (large intestine, adherent) | 0.986 | > 10
28 | LoVo (large intestine, adherent) | 0.973 | > 10
29 | MHH-ES-1 (Ewing sarcoma, adherent) | 0.933 | > 10
30 | NCI-H460 (large cell lung carcinoma, adherent) | 0.986 | > 10
31 | NCI-H1568 (lung adenocarcinoma, adherent) | 0.936 | > 10
32 | NCI-H1792 (lung adenocarcinoma, adherent) | 0.989 | > 10
33 | OVCAR-8 (ovary, adherent) | 0.972 | > 10

Compound: CNC(=O)c1ccc(Nc2cc(Nc3ccccc3S(=O)(=O)C(C)C)c3cc[nH]c3n2)nc1 [HG-5-113-01]
Test: as above
Conditions: top dose 10 µM; top dose inferred
Experimental: as §1

Row | Cell Line | AUC | IC50 [µM]
34 | 22RV1 (prostate, adherent) | 0.784 | 5.38
35 | 639-V (bladder, adherent) | 0.829 | 5
36 | 8305C (thyroid, adherent) | 0.846 | > 10
37 | 8505C (thyroid, adherent) | 0.739 | 3.16
38 | A427 (non-small cell lung carcinoma, adherent) | 0.726 | 2.77
39 | AU565 (breast, adherent) | 0.797 | 5.32
40 | AsPC-1 (pancreas, adherent) | 0.842 | > 10
41 | BHT-101 (thyroid, adherent) | 0.719 | 2.66
42 | BICR10 (head and neck, adherent) | 0.851 | 9.54
43 | BT-20 (breast, adherent) | 0.88 | > 10
44 | BT-483 (breast, adherent) | 0.96 | > 10
45 | C32 (melanoma, adherent) | 0.762 | 3.81
46 | C-4-I (cervix, adherent) | 0.819 | 6.31
47 | CAL-12T (non-small cell lung carcinoma, adherent) | 0.791 | 5.09
48 | CAL-27 (head and neck, adherent) | 0.608 | 1.24
49 | CAL-33 (head and neck, adherent) | 0.672 | 1.89
50 | CAL-62 (thyroid, adherent) | 0.653 | 1.62

Row | Cell Line | AUC | IC50 [µM]
51 | CAPAN-1 (pancreas, adherent) | 0.821 | 6.66
52 | CCK-81 (large intestine, adherent) | 0.836 | 6.06
53 | CHP-212 (neuroblastoma, adherent) | 0.563 | 0.915
54 | CHSA0108 (chondrosarcoma, adherent) | 0.712 | 2.75
55 | DoTc2-4510 (cervix, adherent) | 0.82 | 5.35
56 | HCC1395 (breast, adherent) | 0.889 | > 10
57 | HCC1937 (breast, adherent) | 0.908 | > 10
58 | HCT-15 (large intestine, adherent) | 0.916 | > 10
59 | HCT-116 (large intestine, adherent) | 0.661 | 1.71
60 | HT-29 (large intestine, adherent) | 0.789 | 4.42
61 | LoVo (large intestine, adherent) | 0.781 | 4.19
62 | MHH-ES-1 (Ewing sarcoma, adherent) | 0.629 | 1.41
63 | NCI-H460 (large cell lung carcinoma, adherent) | 0.801 | 4.34
64 | NCI-H1568 (lung adenocarcinoma, adherent) | 0.867 | > 10
65 | NCI-H1792 (lung adenocarcinoma, adherent) | 0.83 | 5.45
66 | OVCAR-8 (ovary, adherent) | 0.767 | 3.35

Compound: O=C1NC(=O)c2c1c(-c1ccccc1Cl)cc1[nH]c3ccc(O)cc3c21 [Wee1 inhibitor 681640]
Test: as above
Conditions: top dose 2 µM; top dose inferred
Experimental: as §1

Row | Cell Line | AUC | IC50 [µM]
67 | 22RV1 (prostate, adherent) | 0.958 | > 2
68 | 639-V (bladder, adherent) | 0.989 | > 2
69 | 8305C (thyroid, adherent) | 0.932 | > 2
70 | 8505C (thyroid, adherent) | 0.979 | > 2
71 | A427 (non-small cell lung carcinoma, adherent) | 0.869 | 1.88
72 | AU565 (breast, adherent) | 0.981 | > 2
73 | AsPC-1 (pancreas, adherent) | 0.93 | > 2
74 | BHT-101 (thyroid, adherent) | 0.974 | > 2
75 | BICR10 (head and neck, adherent) | 0.753 | 0.759
76 | BT-20 (breast, adherent) | 0.939 | > 2
77 | BT-483 (breast, adherent) | 0.933 | > 2
78 | C32 (melanoma, adherent) | 0.962 | > 2
79 | C-4-I (cervix, adherent) | 0.979 | > 2
80 | CAL-12T (non-small cell lung carcinoma, adherent) | 0.897 | > 2
81 | CAL-27 (head and neck, adherent) | 0.975 | > 2
82 | CAL-33 (head and neck, adherent) | 0.861 | 1.7
83 | CAL-62 (thyroid, adherent) | 0.959 | > 2

Row | Cell Line | AUC | IC50 [µM]
84 | CAPAN-1 (pancreas, adherent) | 0.987 | > 2
85 | CCK-81 (large intestine, adherent) | 0.942 | > 2
86 | CHP-212 (neuroblastoma, adherent) | 0.952 | > 2
87 | CHSA0108 (chondrosarcoma, adherent) | 0.964 | > 2
88 | DoTc2-4510 (cervix, adherent) | 0.957 | > 2
89 | HCC1395 (breast, adherent) | 0.949 | > 2
90 | HCC1937 (breast, adherent) | 0.985 | > 2
91 | HCT-15 (large intestine, adherent) | 0.935 | > 2
92 | HCT-116 (large intestine, adherent) | 0.963 | > 2
93 | HT-29 (large intestine, adherent) | 0.988 | > 2
94 | LoVo (large intestine, adherent) | 0.838 | 1.37
95 | MHH-ES-1 (Ewing sarcoma, adherent) | 0.979 | > 2
96 | NCI-H460 (large cell lung carcinoma, adherent) | 0.978 | > 2
97 | NCI-H1568 (lung adenocarcinoma, adherent) | 0.879 | > 2
98 | NCI-H1792 (lung adenocarcinoma, adherent) | 0.944 | > 2
99 | OVCAR-8 (ovary, adherent) | 0.826 | 1.04

Compound: Cc1cc(N2CCOCC2)cc2[nH]c(-c3c(NC[C@@H](O)c4cccc(Cl)c4)cc[nH]c3=O)nc12 [BMS-536924]
Test: as above
Conditions: top dose 4 µM; screen: GDSC drug entry 1091; top dose inferred
Experimental: as §1

Row | Cell Line | AUC | IC50 [µM]
100 | 22RV1 (prostate, adherent) | 0.893 | > 4
101 | 639-V (bladder, adherent) | 0.967 | > 4
102 | 8305C (thyroid, adherent) | 0.877 | > 4
103 | 8505C (thyroid, adherent) | 0.923 | > 4
104 | A427 (non-small cell lung carcinoma, adherent) | 0.927 | > 4
105 | AU565 (breast, adherent) | 0.968 | > 4
106 | AsPC-1 (pancreas, adherent) | 0.734 | 1.91
107 | BHT-101 (thyroid, adherent) | 0.852 | 3.25
108 | BICR10 (head and neck, adherent) | 0.955 | > 4
109 | BT-20 (breast, adherent) | 0.98 | > 4
110 | BT-483 (breast, adherent) | 0.934 | > 4
111 | C32 (melanoma, adherent) | 0.878 | > 4
112 | C-4-I (cervix, adherent) | 0.953 | > 4
113 | CAL-12T (non-small cell lung carcinoma, adherent) | 0.873 | > 4
114 | CAL-27 (head and neck, adherent) | 0.854 | 3.27
115 | CAL-33 (head and neck, adherent) | 0.865 | 3.54
116 | CAL-62 (thyroid, adherent) | 0.945 | > 4

Row | Cell Line | AUC | IC50 [µM]
117 | CAPAN-1 (pancreas, adherent) | 0.952 | > 4
118 | CCK-81 (large intestine, adherent) | 0.985 | > 4
119 | CHP-212 (neuroblastoma, adherent) | 0.709 | 0.923
120 | CHSA0108 (chondrosarcoma, adherent) | 0.826 | 2.95
121 | DoTc2-4510 (cervix, adherent) | 0.957 | > 4
122 | HCC1395 (breast, adherent) | 0.955 | > 4
123 | HCC1937 (breast, adherent) | 0.981 | > 4
124 | HCT-15 (large intestine, adherent) | 0.965 | > 4
125 | HCT-116 (large intestine, adherent) | 0.767 | 1.41
126 | HT-29 (large intestine, adherent) | 0.785 | 1.71
127 | LoVo (large intestine, adherent) | 0.907 | > 4
128 | MHH-ES-1 (Ewing sarcoma, adherent) | 0.766 | 1.46
129 | NCI-H460 (large cell lung carcinoma, adherent) | 0.904 | > 4
130 | NCI-H1568 (lung adenocarcinoma, adherent) | 0.937 | > 4
131 | NCI-H1792 (lung adenocarcinoma, adherent) | 0.825 | 2.1
132 | OVCAR-8 (ovary, adherent) | 0.986 | > 4

Compound: NC(=O)c1ccc(N(C(N)=O)c2c(F)cccc2F)nc1-c1ccc(F)cc1F [VX-702]
Test: as above
Conditions: top dose 2 µM; top dose inferred
Experimental: as §1

Row | Cell Line | AUC | IC50 [µM]
133 | 22RV1 (prostate, adherent) | 0.957 | > 2

Source: the supplement of paper PMC4967469
